This note sets out measurements from the RNAGym collection of RNA variant scans (doi:10.7554/elife.90254).

The source gives no read counts; variants with many changes may rest on few reads.

B1: LINE1-mini (parent)
chain: GGCAGAGCUCAACACAGCGUGGCAAAGUGGCUGUGGCUAGACUGCC

In the series the parent is B1. The series can be described thus: self-cleavage, relative activity (ratio to wild type); higher = more cleavage; in vitro, sequencing; the parent is a self-cleaving ribozyme.
With G30A C31U U32G, the self-cleavage amounted to 0.07. As for U28A G36U G40A U43G C45U, the figure is 0.16. For G29A G33U G40U C45G, the self-cleavage turned out to be 0.01.

For the variant U28C G30A G36C, the self-cleavage was determined as 0.06. Turning to U28G C31A C37U G44C, the self-cleavage was 0.11. As for C31A A41C G44A, the figure is 0.03; as for G30U C31A C37U G40A, 0.08; as for G29A C31U A39U, 1.2. U28C G29U C31G G33A U34G G36A G44U: the self-cleavage was 0.15. On to G29A G35U A41C, for which the self-cleavage stood at 0.03. Next, G27U U43C C45G: 0.05. As to G29C G36C C42G C46U, the self-cleavage stood at 0.12. As for G27U G40A G44A, the figure is 0.08. On to G29C U34G G44U, for which the self-cleavage came out at 0.05. Take G29U G35A A39G: the self-cleavage stood at 0.44. For G30U G36U G44A, the self-cleavage amounted to 0.06.

G27U G29A G33U C46A: the self-cleavage worked out at 0.08. For the variant G27U G29A G30A G33U, the self-cleavage worked out at 0.31. As for U28C C31U C42U, the figure is 0.29. As for G29U C42A C45U, the figure is 0.28; as for G30U G44U C46G, 0.03; as for G30A U32A U43C, 0.06. Next, G29U G30C A41U: 1.08; G30A G44A C45A: 0.05.

With G29U G40U C45U, the self-cleavage turned out to be 0.23. Consider G29U G30A C31A C37A, for which the self-cleavage amounted to 0.07. Next, U28A G30C G44U: 0.06. As for G29A G30A G40U, the self-cleavage turned out to be 0.19.

Regarding G29C C31A U32A, the self-cleavage is 0.14.

For G30A G36C C45U, the self-cleavage amounted to 0.02. Next, G30U U34A C46A: 0.01; G29C G40U C42G: 0.03. Next, U28C G29C G30U G40U: 0.02; G29C A39U G40A: 0.02.

For G30U C31A A41U, the self-cleavage came out at 0.05. With U28A G30U A41U, the self-cleavage came to 0.13. As for U28C G30U C45U, the figure is 1.59. U28C G29U C45G: the self-cleavage was 0.3.

Regarding G29C G30A A39C G40C, the self-cleavage amounted to 0.04. As for G29A G36C G40A, the figure is 0.16; as for U28A C45G C46G, 0.02; as for U28G C31U G33A U43A, 0. As for G29C A41C G44U C46U, the figure is 0.01; as for G29C U34A U43G C46U, 0.01; as for G30A C31G U38A A39U, 0.08. Turning to G30A G40A C42A, the self-cleavage came to 0.12. As for G29U G33U U34C, the figure is 0.12; as for G30C U43C G44U, 0.02. Next, G29U C42A U43A: 0.01. Next, G27U U34A C37U G44U: 0; G30C C31G G36C: 0.06; U28C G29U G33C: 0.05. Regarding G30C A41U U43A, the self-cleavage was 0.04. Next, G29U C31A U38A U43C: 0.03. As for G29U G36A U38A A39G G40A C42A, the self-cleavage is 0.02. As for U28A A39U C46A, the self-cleavage was determined as 1.03. Next, G29A C31G C42U U43G: 0.09; U28A G35A G36A: 0.08. As for U28C C31G G40C, the self-cleavage was found to be 0. Next, G27U U32G C45U: 0.04; U28C G35A A39G: 0.15. As for G30A C42U U43G, the figure is 1.69; as for G27U U28G C31U A39U, 0.21; as for G30U G36U A39G G40C, 0.03. Next, G29A G33U C37U: 0.06; G27U U28A C31G G35A: 0.04; G29C G30A C46U: 0.92. Regarding G29C G30A C46A, the self-cleavage is 0.64. Turning to U28C C31A C37U, the self-cleavage was found to be 0.04. Turning to G27U U34A C42A U43C, the self-cleavage worked out at 0.22. Next, U28G G30C U38G: 0.01; G29C G33A U34A U43A: 0.02. As for U28G G33A C46G, the figure is 0.06; as for U28G C45U C46A, 0.15; as for U28G G30C C42G, 0.01. With G29A C31U U32C U34G, the self-cleavage amounted to 0.05. Next, G27U U38C A41C: 0.02; G29U A41C C42A: 0.07. Next, G29A G30A U32A C37U: 0.01; G27U U34C A41G: 0.05; U28A U34G C37A: 0. Next, G29U C42U U43G: 0.03; G30U C31G U38A: 0.01; G30C U38G A39U C45A: 0.16. On to U28C G29C C31U, for which the self-cleavage was determined as 0.4. With G30C C31U C42A, the self-cleavage came out at 0.08. As for G30C C31A G33U G40A, the figure is 0.02; as for G30U C31A C45U, 0.14. As to G30U C37U C46A, the self-cleavage was determined as 0.05.

U28C C37A C45U: the self-cleavage came to 0.03. Next, G27U G30A C42G: 0.05; G27U U28A A41U: 1.66. Next, G30C C31A U38C: 0.07; U28C G33C G40A A41C: 0.01; G29U C37G A41C: 0.02. Regarding G29U C37G A41G, the self-cleavage was determined as 0.03.

In the case of G27U G35C G44A, the self-cleavage stood at 0.06. Next, G29C C37U C42A: 0.02; G30U U32G U34A G40U: 0.01. Next, G27U U34C U43A: 0.02; U28G C31G A41U: 0.05. Next, G30C C42A G44C C46U: 0.01; G30A G35C U38G A39U U43A: 0.04.

Turning to G27U U28A U38A, the self-cleavage worked out at 0.52. Next, G29U U34G C37U: 0; G29U C31A G35U: 0.02; G29U G30C C46G: 0.07.

Take G30C C37G U38G A41C C46U: the self-cleavage came out at 0. Next, G27U G33U G36U: 0.1; G27U G30C G40A: 0.06; G30C C42G U43C: 0.02. Regarding G30U U32C C46G, the self-cleavage stood at 0.06. As for G29C A39C G44A, the figure is 0.03; as for G29A G30U U32C, 0.05; as for U28G G30C G36A A39U C45G, 0.01. Next, G29C G30A A39G: 0.02. With U28G U32C G33A C45U, the self-cleavage was 0.08. As for G27U U32A C42A, the figure is 0.02; as for U28G C37A C46U, 0.

Turning to G30C G33A G44C, the self-cleavage amounted to 0.03. In the case of U28G A39C U43C C46U, the self-cleavage amounted to 0.03. As for G27U U28C G30U C31U G35C, the figure is 0.03; as for G27U U28C G44A, 0.03; as for G30C C31A G36A G44C, 0.11. As for U28A C31U A41U, the figure is 0.18; as for U28C A39G G40C, 0.04. As for G29A C31A G35U A39G, the figure is 0.02. Turning to G29C G33A C42A, the self-cleavage was 0.07.

Turning to G29A G30U G33U C37U, the self-cleavage was 0.02. In the case of G29U G36A G40U C46G, the self-cleavage stood at 0.03.

On to G27U C37G G40U, for which the self-cleavage was 0.16. G29C G36A A41G: the self-cleavage was 0.1. Regarding G29U G30U A39C C42A C45G, the self-cleavage was 0.07. Turning to G30U G33U G44U, the self-cleavage was found to be 0.05.

G29C U32C G44C C45U: the self-cleavage turned out to be 0.11. On to U28C G33U G35A, for which the self-cleavage is 0.08. As for G29A G35A A39G A41U G44U, the figure is 0.09; as for G29U C31A G40U, 0.03; as for G30A C37G U43A, 0.01. In the case of G29U G30A C31A G40A, the self-cleavage was 0.04. As for G30U C31A G44U C46G, the figure is 0.18.

With G30A C37A A41C, the self-cleavage was determined as 0.02. As for G30A C31A U38C A41U, the figure is 0.08; as for U28G G29U C42A, 0.08; as for U28G G29U C42G, 0.12.

In the case of C31A C37A C46U, the self-cleavage stood at 0.02.

With G29U G33U U34C C37U U43A, the self-cleavage is 0.03. For G27U G29C G33U, the self-cleavage was 0.16. Next, U28G G29A G30A C42U: 0.07; G29U G36U U38C G44C: 0.01; G29U U32A U34A: 0.01.

As to G30A C37A G40C, the self-cleavage was found to be 0.26. With G29U G30U G35C C45A, the self-cleavage was determined as 0.

G30A G33U A41C: the self-cleavage came to 0.03.

With G30U G35U C46U, the self-cleavage amounted to 0.23. Turning to G29U C42G G44U, the self-cleavage came out at 0.04. Next, U28C A39C G40U U43C: 0.03. As for G30A G36C G40C A41C, the figure is 0.14. Turning to U28G C37U C45A, the self-cleavage amounted to 0.01. Turning to G30U U32A A41G C45A, the self-cleavage came out at 0.06. As to G27U U28A G36A C37G, the self-cleavage was 0.07.

With U28G G33U C45A, the self-cleavage was determined as 0.01.

With C31A C42G G44A, the self-cleavage came to 0.05.

Turning to U28A C31A C37G C45G, the self-cleavage was 0.03. Regarding G30U U32A C37A, the self-cleavage came to 0.04. As for G29A U32A A39G, the self-cleavage worked out at 0.02.

In the case of G30U G33A C42U, the self-cleavage was found to be 0.05.
